# Hit rate of the full screen: of about 310,000 compounds, about 14,000 (4.5%) showed an effect of 50% or more. The effect is printed as a negative number. This is one part of the list.
# Biological target: human ether-à-go-go-related gene (hERG) potassium channel (human, UniProt Q12809)
# Assay: primary screen, population patch clamp on CHO cells stably expressing hERG
# 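Also: peak tail current of the secondary pulse compared with the same well before compound.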
# Sequence of human ether-à-go-go-related gene (hERG) potassium channel (Q12809 whole entry, looked up): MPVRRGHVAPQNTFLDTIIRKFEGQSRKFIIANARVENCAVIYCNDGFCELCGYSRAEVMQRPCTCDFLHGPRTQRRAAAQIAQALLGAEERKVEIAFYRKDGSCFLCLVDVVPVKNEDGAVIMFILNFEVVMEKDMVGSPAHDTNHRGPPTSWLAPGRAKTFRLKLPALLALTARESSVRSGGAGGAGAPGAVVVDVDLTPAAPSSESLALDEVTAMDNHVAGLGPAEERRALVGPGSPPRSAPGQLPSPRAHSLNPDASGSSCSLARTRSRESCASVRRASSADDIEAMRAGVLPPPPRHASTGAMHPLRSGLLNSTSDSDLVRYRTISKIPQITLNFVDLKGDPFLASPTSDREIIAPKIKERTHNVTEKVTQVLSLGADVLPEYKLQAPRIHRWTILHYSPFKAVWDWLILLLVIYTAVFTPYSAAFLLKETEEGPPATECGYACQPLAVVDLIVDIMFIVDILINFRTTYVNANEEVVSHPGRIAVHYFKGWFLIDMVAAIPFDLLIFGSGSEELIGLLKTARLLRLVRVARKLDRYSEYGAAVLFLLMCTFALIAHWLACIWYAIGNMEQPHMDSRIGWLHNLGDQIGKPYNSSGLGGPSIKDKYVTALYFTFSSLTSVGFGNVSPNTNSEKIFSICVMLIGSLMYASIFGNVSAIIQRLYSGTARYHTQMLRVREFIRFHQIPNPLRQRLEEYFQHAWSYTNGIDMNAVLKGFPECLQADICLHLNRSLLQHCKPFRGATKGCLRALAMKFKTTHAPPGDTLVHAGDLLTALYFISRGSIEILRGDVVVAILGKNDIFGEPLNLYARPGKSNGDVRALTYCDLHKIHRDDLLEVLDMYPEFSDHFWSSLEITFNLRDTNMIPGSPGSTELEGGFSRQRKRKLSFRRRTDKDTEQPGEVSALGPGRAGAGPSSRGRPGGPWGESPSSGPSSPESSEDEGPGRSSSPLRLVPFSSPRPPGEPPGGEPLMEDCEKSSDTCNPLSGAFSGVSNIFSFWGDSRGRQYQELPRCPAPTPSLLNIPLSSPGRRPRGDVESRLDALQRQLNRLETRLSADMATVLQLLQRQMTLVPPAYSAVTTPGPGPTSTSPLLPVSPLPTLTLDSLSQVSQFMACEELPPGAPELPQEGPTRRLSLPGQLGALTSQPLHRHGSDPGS
row,SMILES,"hERG current change (%, negative = inhibition) at 10uM"
1,COC(=O)CCC(=O)Nc1ccc(Br)cc1,-8.82%
2,COc1cc(NC(=O)c2cc(CC(C)C)on2)c(OC)cc1Cl,-7.3%
3,OC1(c2ccccc2)CN(c2ccccc2)C2=[N+]1CCS2.[Br-] (stereo not shown),-28.1%
4,COc1ccc(Cc2nc3ccc(S(N)(=O)=O)cc3[nH]2)cc1OC,2.52%
5,Cc1ccc(C2(C)NC(=O)N(CC(=O)Nc3ccc(Cl)c(S(=O)(=O)N4CCCCC4)c3)C2=O)cc1 (stereo not shown),-8.83%
6,CCC(C)NC(=O)CC1Oc2ccc(C)cc2NC1=O (stereo not shown),5.92%
7,NC(=O)c1sc2nc3c(cc2c1N)CCC3,8.92%
8,Cc1cc(C)n2nc(SCC(=O)N(C)C)nc2n1,9.06%
9,Nc1ccc(C23CC4CC(CC(C4)C2)C3)cc1,11.1%
10,O=C(CCn1ccc2cc(S(=O)(=O)N3CCCC3)ccc21)NCc1cccc(F)c1,6.86%
11,CCOC(=O)c1sc(NC(=O)C2CSC3(C)CCC(=O)N23)nc1C (stereo not shown),-42.8%
12,CC1CC(C)CN(C(=O)CSc2nc(Cc3cccs3)nc3ccccc23)C1 (stereo not shown),-13%
13,CCCCCCCNC(=O)C1(CC2CC(c3ccccc3)=NO2)CCN(C(=O)c2ccccc2)CC1 (stereo not shown),-70.9%
14,CC(=O)Nc1ccc(-c2csc(Nc3ccc(S(N)(=O)=O)cc3)n2)cc1,-1.99%
15,COc1ccc(NC(=O)CCCC2=NS(=O)(=O)c3ccccc3N2)cc1,17%
16,COc1ccc(Cc2c(Cl)ncnc2Cl)cc1,1.27%
17,CCOc1ccc(S(=O)(=O)N2CCOCC2)cc1NC(=O)c1ccccc1F,25.6%
18,Cc1ccc(S(=O)(=O)N2CCCCC2)cc1NC(=O)c1cccs1,-28.8%
19,COC(=O)C1=C(c2ccccc2)C[C@@H]2CC[C@H]1N2C(=O)N1CCCCC1,-4.4%
20,O=C(Nc1cccnc1)c1cc2c(s1)-c1ccccc1OC2,-2.06%
21,COC(=O)CN(c1ccc2c(c1)OCO2)S(C)(=O)=O,3.07%
22,OC(CCNCCc1c[nH]c2ccccc12)C(F)(F)F (stereo not shown),2.34%
23,CC(C)C(NC(=O)c1ccc(C(C)(C)C)cc1)C(=O)N1CCCC1 (stereo not shown),-0.279%
24,CCOC(=O)c1[nH]c2c(c1-c1ccccc1)C(=O)CC(c1ccc(OCC)cc1)C2 (stereo not shown),4.63%
25,CCC(C)(C)n1nnnc1C(c1ccc(O)cc1)N1CCc2ccccc2C1.Cl (stereo not shown),-33.3%

# Source: publication PMC4336329 (PLoS ONE, 2015)
